Source: the supplement of paper PMC12217912
Some of the results follow. The full chains were built here from the parent and the listed change. Inactive controls read about 0.05.

B1: TEV protease; numbered along this chain (parent)
chain: MGESLFKGPRDYNPISSSICHLTNESDGHTTSLYGIGFGPFIITNKHLFRRNNGTLVVQSLHGVFKVKDTTTLQQHLVDGRDMIIIRMPKDFPPFPQKLKFREPQREERICLVTTNFQTKSMSSMVSDTSCTFPSGDGIFWKHWIQTKDGQCGSPLVSTRDGFIVGIHSASNFTNTNNYFTSVPKNFMELLTNQEAQQWVSGWRLNADSVLWGGHKVFMVKPEEPFQPVKEATQL

Variants of: B1
Experiment: raw area under fraction-flipped curve 0-4 h after induction (AUC4h, not background-subtracted), DNA-recorder readout of cleavage of the substrate (dimensionless); higher = more cleavage of the substrate by the protease variant
Settings: temperature: 34 °C; time window: 0-4 h after rhamnose induction
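Also: Bxb1 expression induced with 0.2% (w/v) L-rhamnose at OD600 near 0.5, cultures sampled hourly, flipped fraction per protease–substrate barcode pair counted by paired-end Illumina sequencing.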

| Variant | area with substrate ENLDFQS | area with substrate ENLFFQS | area with substrate ENLIFQS | area with substrate ENLLFQS | area with substrate ENLNFQS | area with substrate ENLPFQS | area with substrate ENLRFQS | area with substrate ENLSFQS | area with substrate ENLEFQS | area with substrate ENLHFQS | area with substrate ENLKFQS | area with substrate ENLWFQS | area with substrate ENLQFQS | area with substrate ENLGFQS | area with substrate ENLVFQS | area with substrate ENLMFQS | area with substrate ENLTFQS |
| --- | --- | --- | --- | --- | --- | --- | --- | --- | --- | --- | --- | --- | --- | --- | --- | --- | --- |
| MGESLFKGPRDYNPISSSICHLTNESDGHTTSLYGIGFGPFIITNKHLFRRNNGTLVVQSLHGVFKVKDTTTLQQHLVDGRDMIIIRMPKDFPPFPQELKFREPQREERICLVTTNFQTKSMSSMVSDTSCTFPSGDGIFWKHWIQTKDGQCGSPLVSTRDGFIVGIHSASNFTNTNNYFTSVPKNFMELLTNQEAQQWVSGWRLNADSVLWGGHKVFMVKPEEPFQPVKEATQL [K98E] | 0.0776 | 0.119 | 0.0746 | 0.0792 | 0.0852 | 0.0721 | 0.0624 | 0.0571 |  |  |  |  |  |  |  |  |  |
| MGESLFKGPRDYNPISSSICHLTNESDGHTTSLYGIGFGPFIITNKHLFRRNNGTLVVQSLHGVFKVKDTTTLQQHLVDGRDMIIIRMPKDFPPFPQKLKFREPQRESRICLVTTNFQTKSMSSMVSDTSCTFPSGDGIFWKHWIQTKDGQCGSPLVSTRDGFIVGIHSASNFTNTNNYFTSVPKNFMELLTNQEAQQWVSGWRLNADSVLWGGHKVFMVKPEEPFQPVKEATQL [E108S] | 0.0561 | 0.0706 |  | 0.053 | 0.0596 |  |  | 0.0684 | 0.0687 | 0.075 | 0.0563 | 0.0567 |  |  |  |  |  |
| MGESLFKGPRDYNPISSSICHLTNESDGHTTSLYGIGFGPFIITNKHLFRRNNGTLVVQSLHGVFKVKDTTTLQQHLVDGRDMIIIRMPKDFPPFPQKLKFREPQREERINLVTTNFQTKSMSSMVSDTSCTFPSGDGIFWKHWIQTKDGQCGSPLVSTRDGFIVGIHSASNFTNTNNYFTSVPKNFMELLTNQEAQQWVSGWRLNADSVLWGGHKVFMVKPEEPFQPVKEATQL [C111N] | 0.0648 | 0.0662 |  | 0.0629 | 0.0692 | 0.063 | 0.0773 |  |  | 0.0738 | 0.0766 | 0.0734 | 0.0846 |  |  |  |  |
| MGESLFKGPRDYNPISSSICHLTNESDGHTTSLYGIGFGPFIITNKHLFRRNNGTLVVQSLHGVFKVKDTTTLQQHLVDGRDMIIIRMPKDFPPFPQKLKFREPQREERICLVPTNFQTKSMSSMVSDTSCTFPSGDGIFWKHWIQTKDGQCGSPLVSTRDGFIVGIHSASNFTNTNNYFTSVPKNFMELLTNQEAQQWVSGWRLNADSVLWGGHKVFMVKPEEPFQPVKEATQL [T114P] | 0.0609 | 0.0603 | 0.0624 | 0.0541 | 0.0542 | 0.0684 |  | 0.064 |  | 0.07 | 0.0606 |  |  |  |  |  |  |
| MGESLFKGPRDYNPISSSICHLTNESDGHTTSLYGIGFGPFIITNKHLFRRNNGTLVVQSLHGVFKVKDTTTLQQHLVDGRDMIIIRMPKDFPPFPQKLKFREPQREERICLVTTKFQTKSMSSMVSDTSCTFPSGDGIFWKHWIQTKDGQCGSPLVSTRDGFIVGIHSASNFTNTNNYFTSVPKNFMELLTNQEAQQWVSGWRLNADSVLWGGHKVFMVKPEEPFQPVKEATQL [N116K] | 0.0477 | 0.0763 |  | 0.202 | 0.0535 |  |  | 0.0525 | 0.0651 | 0.0765 | 0.0707 |  |  | 0.0686 | 0.0931 |  |  |
| MGESLFKGPRDYNPISSSICHLTNESDGHTTSLYGIGFGPFIITNKHLFRRNNGTLVVQSLHGVFKVKDTTTLQQHLVDGRDMIIIRMPKDFPPFPQKLKFREPQREERICLVTTNFQHKSMSSMVSDTSCTFPSGDGIFWKHWIQTKDGQCGSPLVSTRDGFIVGIHSASNFTNTNNYFTSVPKNFMELLTNQEAQQWVSGWRLNADSVLWGGHKVFMVKPEEPFQPVKEATQL [T119H] | 0.0651 | 0.0814 |  |  |  |  |  | 0.0527 | 0.0771 | 0.0701 | 0.103 |  | 0.082 |  | 0.0857 | 0.0874 |  |
| MGESLFKGPRDYNPISSSICHLTNESDGHTTSLYGIGFGPFIITNKHLFRRNNGTLVVQSLHGVFKVKDTTTLQQHLVDGRDMIIIRMPKDFPPFPQKLKFREPQREERICLVTTNFQTKSMSSKVSDTSCTFPSGDGIFWKHWIQTKDGQCGSPLVSTRDGFIVGIHSASNFTNTNNYFTSVPKNFMELLTNQEAQQWVSGWRLNADSVLWGGHKVFMVKPEEPFQPVKEATQL [M125K] | 0.0422 | 0.0925 |  | 0.0623 | 0.0495 | 0.0644 |  | 0.0261 |  |  | 0.0718 | 0.0692 |  |  |  | 0.0359 |  |
| MGESLFKGPRDYNPISSSICHLTNESDGHTTSLYGIGFGPFIITNKHLFRRNNGTLVVQSLHGVFKVKDTTTLQQHLVDGRDMIIIRMPKDFPPFPQKLKFREPQREERICLVTTNFQTKSMSSMVYDTSCTFPSGDGIFWKHWIQTKDGQCGSPLVSTRDGFIVGIHSASNFTNTNNYFTSVPKNFMELLTNQEAQQWVSGWRLNADSVLWGGHKVFMVKPEEPFQPVKEATQL [S127Y] | 0.0562 | 0.102 | 0.125 |  |  |  |  | 0.0427 | 0.0683 | 0.0781 | 0.0643 |  |  | 0.0473 |  |  | 0.0522 |
| MGESLFKGPRDYNPISSSICHLTNESDGHTTSLYGIGFGPFIITNKHLFRRNNGTLVVQSLHGVFKVKDTTTLQQHLVDGRDMIIIRMPKDFPPFPQKLKFREPQREERICLVTTNFQTKSMSSMVSDTSSTFPSGDGIFWKHWIQTKDGQCGSPLVSTRDGFIVGIHSASNFTNTNNYFTSVPKNFMELLTNQEAQQWVSGWRLNADSVLWGGHKVFMVKPEEPFQPVKEATQL [C131S] | 0.0748 | 0.11 |  |  | 0.0629 |  |  |  |  | 0.0677 |  |  | 0.109 |  |  |  |  |
| MGESLFKGPRDYNPISSSICHLTNESDGHTTSLYGIGFGPFIITNKHLFRRNNGTLVVQSLHGVFKVKDTTTLQQHLVDGRDMIIIRMPKDFPPFPQKLKFREPQREERICLVTTNFQTKSMSSMVSDTSCTQPSGDGIFWKHWIQTKDGQCGSPLVSTRDGFIVGIHSASNFTNTNNYFTSVPKNFMELLTNQEAQQWVSGWRLNADSVLWGGHKVFMVKPEEPFQPVKEATQL [F133Q] | 0.0517 | 0.0703 | 0.092 |  |  | 0.0752 |  | 0.0713 |  |  | 0.065 |  | 0.0557 |  |  |  |  |
